In PubChem BioAssay AID504832 (National Center for Advancing Translational Sciences (NCATS), 2011):
Screen size: about 310,000 compounds; about 18,000 (5.8%) were called active. The inconclusive results got no clear call from the source; some entries with a clear call stand among them for comparison. Calls follow the shape of the dose curve; as a rule, active = well fitted inhibition curve with a large enough effect; inconclusive = small, poorly fitted or top-dose-only effect, or another doubt; inactive = no such curve, though single readings can be large or run the other way. No potency is given beside an inconclusive call; the fits are too rough.

Assay: Primary qHTS for delayed death inhibitors of the malarial parasite plastid, 48 hour incubation
Conditions: P. falciparum luciferase growth in erythrocytes; series mostly up to 28.7 µM; activity change, negative = inhibition: at the top concentration
Summary of the method: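 Cell-based growth assay: transgenic P. falciparum expressing firefly luciferase, cultured in red cells within RPMI 1640 containing 0.5% w/v Albumax, 24 mM bicarbonate and gentamycin. A drop in luciferase activity indicates inhibition.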
% is scaled to controls: 0 for no effect and ±100 for the full control effect; potency is read from the fitted curve at half-maximal effect; tags tell the direction and shape of the fitted curve.

Structure (SMILES) | Potency | activity change, negative = inhibition
CCOc1ccccc1CNc1ccc(O)cc1 | inconclusive [inhibitor, single point] | –
O=C(NNC(=S)NCC1CCCO1)c1cc(Br)ccc1Cl (stereo not drawn) | inconclusive [inhibitor, full curve, poor fit] | –
CCC(Sc1ncnc2c1nnn2-c1ccc(F)cc1)C(=O)OC (stereo not drawn) | – | inactive: 36.3%
CCOC(=O)c1c(C)n(Cc2ccccc2)c2ccc(OCC(O)Cn3nc(C)cc3C)cc12 (stereo not drawn) | active: 11.7 µM | –
O=C(NNc1nc2ccc(F)cc2s1)c1cccc(F)c1 | inconclusive [inhibitor, partial curve, poor fit] | –
CCOc1ccc(NC(=O)NC2CCCCCCC2)cc1 | – | inactive: 80.3%
COc1ccc(-c2cn(Cc3ccc(C(N)=O)cc3)c(-c3ccc(Cl)nc3)n2)cc1 | inconclusive [inhibitor, single point] | –
S=C(NCc1ccccc1)Nc1cccc(Cl)c1 | – | inactive: 2.26%
Cc1[nH]c2ccccc2c1C(=O)CSc1ccccc1 | inconclusive [inhibitor, single point] | –
CCCCCCOC(=O)/C=C/c1c(C)[nH]c(=O)[nH]c1=O | active: 9.28 µM | –
Cc1nc(-c2ccc(Cl)cc2)sc1C(=O)NN | inconclusive [inhibitor, single point] | –
CCO[C@@H]1OC(C(=O)NCc2nc3ccccc3[nH]2)=C[C@H](c2ccc(C(F)(F)F)cc2)[C@H]1CCCO | inconclusive [inhibitor, single point] | –
COCCCn1c(=O)c2sccc2n2c(CCCC(=O)N3CCN(c4ccccn4)CC3)nnc12 | inconclusive [inhibitor, partial curve] | –
O=[N+]([O-])c1ccccc1/C=C/CN1CCN(Cc2ccc3c(c2)OCO3)CC1 | inconclusive [inhibitor, single point] | –
Cc1nccn1S(=O)(=O)c1ccc(Br)cc1Br | active: 1.85 µM | –
Cc1ccc(NC(=O)CN(C)C(=O)CCSc2ccc(F)cc2)cc1 | inconclusive [inhibitor, partial curve, poor fit] | –
Oc1[nH]c2ccc(Br)cc2c1N=NC(=S)NCC1CCCO1 (stereo not drawn) | active: 5.86 µM | –
COc1ccccc1NC(=O)Nc1cc(NC(=O)Nc2ccccc2OC)c(C)nc1C | inconclusive [inhibitor, single point] | –
CC(C)N(C(=O)COC(=O)c1ccc([N+](=O)[O-])cc1)c1ccccc1 | inconclusive [inhibitor, single point] | –
Cc1ccc(C)c(S(=O)(=O)N2CCN(C(=O)Cn3cnc4c3c(=O)n(C)c(=O)n4C)CC2)c1 | – | inactive: -1.5%
CCCCn1nnnc1NCc1cccc(OC)c1OC | – | inactive: 18.3%
CN(C)c1ccc(/C=N/NC(=O)CNC(=O)/C=C/c2ccccc2)cc1 | – | inactive: 115%
Cc1cc(C)cc(NC(=O)c2ccc([N+](=O)[O-])o2)c1 | active: 13.1 µM | –
O=C(Nc1ccc(Oc2ccc3ccccc3c2)cc1)c1ccco1 | active: 2.08 µM | –

Structure (SMILES) | Potency | activity change, negative = inhibition
N#Cc1ccccc1S(=O)(=O)N1CCN(CC(=O)Nc2ccnn2C2CCCC2)CC1 | inconclusive [inhibitor, single point] | –
CN(C)[C@@H]1C(=O)C(C(N)=O)=C(O)[C@@]2(O)C(=O)C3=C(O)c4c(O)ccc(Cl)c4[C@@](C)(O)[C@H]3C[C@@H]12 | inconclusive [inhibitor, partial curve, poor fit] | –
O=C(COc1ccccc1)NC(Cc1c[nH]c2ccccc12)C(=O)O (stereo not drawn) | – | inactive: 1.01%
O=S(=O)(O)c1ccc(N2N=C(c3ccccc3)CC2c2ccccc2)cc1 (stereo not drawn) | – | inactive: 5.91%
COc1ccc(OC)c(S(=O)(=O)N2CCN(c3ccc(F)cc3)CC2)c1 | – | inactive: -11.5%
Cc1cc(C)n(-c2nc3ccccc3nc2Nc2ccc3c(c2)OCO3)n1 | inconclusive [inhibitor, single point] | –
CCOC(=O)c1c(C)nn(-c2ccc(NC(=O)c3c(C)noc3C)cc2)c1C | – | inactive: -6.35%
CN1CCN(C(=O)c2ccc3c(c2)N(Cc2ccccc2)CCS3)CC1 | – | inactive: -12.4%
O=C(Nc1ccccn1)c1ccc(Br)c(S(=O)(=O)N2CCCCC2)c1 | inconclusive [inhibitor, single point] | –
Cc1ccc(S(=O)(=O)N(C)CCCC(=O)N2CCN(c3ccccn3)CC2)cc1 | active: 13.1 µM | –
COc1ccc(C(=O)/C=C/C(=O)N(Cc2ccc3c(c2)OCO3)C(C(=O)NC2CCCCC2)c2ccncc2)c(O)c1 (stereo not drawn) | active: 5.22 µM | –
C=CCn1c(=O)c2c(nc3n2CCN3c2cccc(Cl)c2C)n(C)c1=O | inconclusive [inhibitor, partial curve, poor fit] | –
O=C(Nc1ccc(F)c([N+](=O)[O-])c1)C(=O)c1c(O)[nH]c2ccccc12 | – | inactive: 26.2%
CCN(CC)c1ccc(S(=O)(=O)N2CCOCC2)cc1NC(=O)COC(=O)/C=C/c1ccc(C)o1 | inconclusive [inhibitor, single point] | –
CCCCOc1ccc(C(=O)OCC(=O)NC2CCCC2)cc1 | – | inactive: 1.72%
Cc1ccc(S(C)(=O)=NC(=O)c2cc(C)on2)cc1 (stereo not drawn) | – | inactive: -6.91%
N#Cc1ccccc1CSc1nc(N2CCCCC2)nc(N2CCCCC2)n1 | inconclusive [inhibitor, partial curve, poor fit] | –
COc1ccc(-n2nc(C(=O)NCC(=O)NC(C)C)c3ccccc3c2=O)cc1Cl | – | inactive: -16.9%
CC1CCN(C(=O)Nc2cccc(NC(=O)N3CCC(C)CC3)c2)CC1 | – | inactive: -31.1%
COc1ccccc1NC(=O)C1=C(C)NC2=C(C(=O)CC(c3ccc(OC)c(OC)c3)C2)C1c1coc2ccccc2c1=O (stereo not drawn) | active: 11.7 µM | –
O=C(Nc1ccccc1N1CCOCC1)c1cccc([N+](=O)[O-])c1 | – | inactive: 27%
Cc1cccc(NC(=O)NC(C)CCc2ccccc2)c1 (stereo not drawn) | inconclusive [inhibitor, partial curve, poor fit] | –
CN(Cc1cccc(F)c1)C(=O)CSc1nnnn1C1CC1 | – | inactive: 15.1%
Nc1ccc(Oc2ccc3nc(-c4ccccc4)c(-c4ccccc4)nc3c2)cc1 | inconclusive [inhibitor, single point] | –
